# Assay results from PubChem BioAssay AID463173 (ICCB-Longwood Screening Facility, Harvard Medical School, 2010).
# Among all 52,000 compounds or so, about 1,700 (3.3%) were called active. Cut-off read from the data, not from the text of the source: active = survival mostly below about 52% (no sharp cut-off); inactive = mostly above about 56%. This is one part of the list.
# Test system: Wild type
# Experiment: growth inhibition of S. aureus wild type versus tarO mutant, primary screen, teichoic acid synthesis inhibitors, RN4220, OD600 (AID 463173)
# Conditions: S. aureus RN4220 wild type/DeltatarO growth, OD600, 18 h, stronger effect = lower value, screened at 18.75 µg/mL (by protocol)
row,Compound,survival
1,Cc1noc(C)c1S(=O)(=O)N(CC(=O)NCc1ccccc1Cl)c1ccc(C(C)C)cc1,inactive: 82%
2,O=C(Nc1ccc(F)cc1F)c1c2c(nc3ccccc13)C(=O)N(C1CCCCC1)C2,inactive: 71%
3,Cc1ccc(N2CCN(C(=O)c3ccc4c(Cl)c5c(nc4c3)CCCC5)CC2)c(C)c1,inactive: 94%
4,O=C(Nc1c(-c2ccccc2)nc2ccccn12)c1ccc(Br)cc1,inactive: 56%
5,O=C(CSc1nc2c([nH]c3ccccc32)c(=O)n1-c1ccccc1)c1ccccc1,inactive: 73%
6,COc1ccc(OC)c(NC(=O)c2ccc(CSc3nnnn3C)cc2)c1,inactive: 96%
7,O=C(NCc1cccs1)C1CCN(C(=O)N2CCOc3ccccc32)CC1,inactive: 107%
8,Cc1ccc(N(CC(=O)N2CCN(c3ccc(Cl)cc3)CC2)S(=O)(=O)c2c(C)noc2C)cc1,inactive: 82%
9,CCOC(=O)c1cc(OC(=O)c2ccc(Cl)cc2)n(-c2ccccc2)n1,inactive: 71%
10,COc1ccc(C2C(=O)N(C3CCCCC3)CC(=O)N2Cc2ccccc2Cl)cc1OC (stereo not drawn),inactive: 127%
11,COc1ccc(-c2nn(CC(=O)Nc3ccccc3F)c3c2cnc2ccc(F)cc23)cc1,inactive: 88%
12,O=c1[nH]ncc(NCCc2ccccc2)c1Cl,inactive: 109%
13,CCc1ccc(-n2nc(C)c3c(C(=O)NCCc4ccc(OC)c(OC)c4)cc(C)nc32)cc1,inactive: 71%
14,COc1ccc(CN2COc3ccc4c(-c5ccc(OC)cc5)cc(=O)oc4c3C2)cc1,inactive: 95%
15,CC(=O)Nc1ccc(Nc2ccccc2)cc1,inactive: 97%
16,COc1ccc2c(=O)c(NC(=O)NCCCN3CCCC3=O)c[nH]c2c1,inactive: 113%
17,COc1ccc(N2CCN(S(=O)(=O)CCNC(=O)c3ccc(C(F)(F)F)cc3)CC2)cc1,inactive: 125%
18,Cc1ccc(-c2nc(S(=O)(=O)c3ccc(C)cc3)c(N3CCN(c4ccccc4)CC3)o2)cc1,inactive: 104%
19,Cc1ccc(C)c(N2CCN(CCCNC(=O)Cn3ncc4c([nH]c5ccccc54)c3=O)CC2)c1,inactive: 75%
20,COc1ccc(CNC(=O)Cn2ncn3nc(-c4cccs4)cc3c2=O)cc1,inactive: 83%
21,CC(=O)NC1C(Oc2ccccc2C)OC2COC(C)(C)OC2C1O (stereo not drawn),inactive: 101%
22,CCOC(=O)c1ccc(NC(=O)CCS(=O)(=O)c2ccc3c(c2)oc(=O)n3C)cc1,inactive: 69%

row,Compound,survival
1,CCc1ccccc1N(CC(=O)N1CCc2ccccc2C1)S(C)(=O)=O,inactive: 107%
2,CCCCCn1c(=O)[nH]c2cc(C(=O)NCc3ccc(OC)cc3)ccc2c1=O,inactive: 91%
3,CCc1ccc(NC(=O)C(CC)n2nnc(C(=O)OC)c2C(=O)OC)cc1 (stereo not drawn),active: -1%
4,CCOc1ccc(-n2nc3cc(C)c(NC(=O)CC)cc3n2)cc1,inactive: 72%
5,COc1ccc(C2NC(=O)c3c(sc4c3CCN(C)C4)N2)cc1O (stereo not drawn),inactive: 68%
6,CCCNc1nc(NCc2ccccc2OC)c2cnn(C)c2n1,inactive: 74%
7,CCN(CCCNC(=O)c1cc2c(=O)[nH]c3ccc(C)cc3c2s1)c1ccc(C)cc1,inactive: 64%
8,CCCCN(CCCC)CCNC(=O)CN1C(=O)CSc2ccc(S(=O)(=O)N3CCCCC3)cc21,inactive: 110%
9,Cc1cccc(CN2C(=O)CC(c3ccc(Cl)cc3)c3c(C)nn(-c4nc(C)cc(C)n4)c32)c1 (stereo not drawn),inactive: 76%
10,COc1ccccc1N(CC(=O)Nc1ccccc1F)S(C)(=O)=O,inactive: 74%
11,Cc1cccc(N2CCN(C(=O)C3CCN(S(=O)(=O)c4cn(C)cn4)CC3)CC2)c1C,inactive: 79%
12,COc1ccccc1NC(=O)CN1C(=O)c2cccc3cccc1c23,inactive: 58%
13,Cc1ccc(Cl)cc1N1CCN(S(=O)(=O)c2ccc3[nH]c4c(c3c2)CCCC4)CC1,inactive: 81%
14,Cc1ccc(NC(=O)N2CCN(c3nnc(C)c4c(C)n(-c5ccccc5)nc34)CC2)cc1Cl,inactive: 71%
15,CCCN1C(=O)c2ccccc2CC1(C)C(=O)NC1CCCCC1 (stereo not drawn),inactive: 85%
16,Cc1ccc(Cl)cc1Nc1nn2c(=O)c3ccc(C(=O)NCc4cccs4)cc3nc2s1,inactive: 131%
17,COc1ccccc1NC(=O)C1CCN(S(=O)(=O)c2ccc3c(c2)oc(=O)n3C)CC1,inactive: 86%
18,CCOCCCn1c(SCC(=O)Nc2cccc(OC)c2)nc2ccccc2c1=O,inactive: 89%
19,COc1cccc(C(=O)NCC(=O)NN)c1,inactive: 106%
20,CCC(CO)Nc1ncnc2c1cnn2-c1ccc(C)cc1 (stereo not drawn),active: -6%
21,CCOc1ccccc1CNC(=O)c1cnc2sc(N3CCCC3)nn2c1=O,inactive: 138%
22,O=C(NCc1ccc2c(c1)OCO2)c1ccc2c(c1)N(Cc1ccc(F)cc1)C(=O)c1ccccc1S2=O (stereo not drawn),inactive: 90%

row,Compound,survival
1,CCOCCc1nn2c(=O)cc(COC(=O)c3cccs3)nc2s1,inactive: 159%
2,Cc1ccc2nc(N(Cc3cccnc3)C(=O)c3ccc4c(c3)OCCO4)sc2c1,inactive: 67%
3,CCN(c1ccc(Cl)cc1)S(=O)(=O)c1nnc(NC(=O)C2CCCCC2)s1,inactive: 89%
4,Cc1cc(C)cc(-n2c(SCC(=O)NCC3CCCO3)nc3c([nH]c4ccccc43)c2=O)c1 (stereo not drawn),inactive: 70%
5,CCOc1ccc(-c2cc(NC(=O)c3ccc(C)cc3)c(C(=O)OC)s2)cc1,inactive: 72%
6,COc1ccc2c(c1)-c1nc(NC(=O)c3ccc(C)cc3)sc1CC2,active: 14%
7,NC(=O)c1nsc(C(=O)N(CCc2ccccc2)C(C(=O)NC2CCCC2)c2ccco2)c1N (stereo not drawn),inactive: 105%
8,CCCC(=O)C1=C(c2ccc(C)c(C)c2)N(C(=O)CCC)n2c(CC)nnc2S1,inactive: 72%
9,COc1ccc(-c2noc(-c3ccc(NCCc4ccccc4)c([N+](=O)[O-])c3)n2)cc1OC,inactive: 86%
10,CC1CCN(C(=O)c2cc(-c3cccc(Cl)c3)on2)CC1,active: -15%
11,CCn1ccc2cc(S(=O)(=O)N3CCCN(C(=O)Nc4cc(Cl)ccc4C)CC3)ccc21,inactive: 71%
12,CC(C)c1ccc(NS(=O)(=O)c2ccc3[nH]cc(C(=O)N4CCCC4)c(=O)c3c2)cc1,inactive: 78%
13,O=C(Cn1ncc2c3ccccc3n(Cc3ccccc3)c2c1=O)Nc1ccccc1C(F)(F)F,inactive: 84%
14,COc1ccc(OC)c(CNC(=O)CCCn2nc(C)c3c(C)n(-c4ccc(C)cc4)nc3c2=O)c1,inactive: 54%
15,COc1cccc(CNC(=O)Cc2c(C)c3c(cc(C)c4c(C)coc43)oc2=O)c1,inactive: 83%
16,CCOc1ccc(NC(=O)Nc2ccc3snnc3c2)cc1,inactive: 116%
17,CCCC(=O)Nc1ccccc1NC(=O)CCC,inactive: 86%
18,Nc1ccccc1OC(=O)C[n+]1ccccc1,inactive: 93%
19,CCc1ccc(CNC(=O)c2ccc3nc(C(C)C)oc3c2)cc1,inactive: 85%
20,Cn1ccc2c(OCC(=O)NCc3ccccc3Cl)cccc2c1=O,inactive: 85%
21,CC(=O)N1CCC2(CC1)OC(=O)C(C)=C2C(=O)NCc1ccc(Cl)cc1,inactive: 49%
22,Cc1nn(-c2nc(-c3ccc(F)cc3)cc(C(F)(F)F)n2)c(C)c1Cl,active: -2%

row,Compound,survival
1,O=C(Nc1ccc2oc(-c3cccnc3)nc2c1)c1ccc(-c2ccccc2)o1,inactive: 72%
2,COc1ccc(OC(C)c2nc3ccccc3[nH]2)cc1 (stereo not drawn),inactive: 79%
3,CCc1ccc(NC(=O)C(=O)NCC(c2cccnc2)N2CCN(C)CC2)cc1 (stereo not drawn),inactive: 111%
4,CCOc1ccc(NC(=O)Cn2cc(C(=O)c3ccc(C)c(C)c3)c(=O)c3cc(OC)c(OC)cc32)cc1,inactive: 88%
5,COc1cc(NC(=O)C(CC(C)C)NS(=O)(=O)c2ccc3c(c2)oc(=O)n3C)c(C(=O)O)cc1OC (stereo not drawn),inactive: 124%
6,CCOC(=O)c1ccc(NC(=O)c2csc3c2CCCCC3)cc1,inactive: 33%
7,CCOc1ccc(NC(=O)C(=O)NCCc2csc3nc(-c4ccccc4F)nn23)cc1,active: -3%
8,Cc1ccc(CN2CCN(C3CCN(S(=O)(=O)c4ccc(C)cc4)CC3)C(=O)C2=O)cc1,inactive: 77%
9,COC(=O)c1ccc(Cl)cc1NC(=O)N(C)CCc1c(C)nn(C)c1C,inactive: 111%
10,O=c1cc(-c2ccc(F)cc2)nc(SCc2nc(-c3ccccc3Cl)no2)[nH]1,inactive: 121%
11,CCC1CCCCN1C(=O)CSc1nc2c([nH]c3ccccc32)c(=O)n1-c1cccc(OC)c1 (stereo not drawn),inactive: 53%
12,Cc1ccc(-n2ccnc(NCCc3ccc(S(N)(=O)=O)cc3)c2=O)cc1C,inactive: 55%
13,Cc1oc(-c2cccc(Cl)c2)nc1CSc1nc2ncccc2[nH]1,inactive: 78%
14,COc1cc(C(=O)Nc2ccc(NC(=O)c3ccc(Br)cc3)cc2)cc(OC)c1OC,inactive: 82%
15,COc1ccc(CCn2c3c(c(=O)[nH]c2=O)C(NC(=O)c2ccccc2OC)(C(F)(F)F)C(=O)N3)cc1OC (stereo not drawn),inactive: 84%
16,O=C(O)c1ccc2nc(-c3cc4cc(F)ccc4oc3=O)[nH]c2c1,inactive: 121%
17,Cc1cccc(N2CCN(C(=O)c3cc4c(=O)n(C)c5ccccc5c4s3)CC2)c1C,inactive: 59%
18,O=C(COc1ccccc1Cl)Nc1ccc(Cl)c(-c2nc3ccccc3o2)c1,inactive: 80%
19,COCCN(Cc1cc2cc3c(cc2nc1Cl)OCO3)C(=O)Nc1ccccc1OC,inactive: 100%
20,CCOc1ccc(NC(=O)c2cnn(-c3ccc(C)c(C)c3)c2C2CCN(C(=O)OC(C)(C)C)CC2)cc1,inactive: 89%
21,COc1ccccc1N1CCN(C(=O)c2cn(C)c3ccc(S(=O)(=O)N(C)C4CCCCC4)cc3c2=O)CC1,inactive: 87%
22,CCc1ccc(OCC(=O)N(Cc2ccco2)Cc2ccccc2Cl)cc1,inactive: 83%
